Data from PubChem BioAssay AID602332 (National Center for Advancing Translational Sciences (NCATS), 2012).
Values joined by “and” are separate entries in the source; they are usually repeats but may differ in a detail not shown here. Identical values can stand only once. Out of some 420,000 compounds screened, about 75 (0.02%) were called active. Inconclusive means that the source gave no clear call. Such entries were picked first, then a sample of the others. Calls come from the whole dose curve; as a rule, active = well fitted activation curve with a large enough effect; inconclusive = small, poorly fitted or top-dose-only effect; inactive = no such curve, though single readings can be large or run the other way. Where the call is inconclusive, the potency comes from a doubtful curve fit.
Potency is the fitted concentration of half-maximal effect; tags give direction and shape of the fitted curve.

Assay: qHTS for Inducers of the Endoplasmic Reticulum Stress Response (ERSR) in Human Glioma: qHTS; note: nearly all actives have a fitted effect of over 35% in size; for activation: % of control where 0% means no effect
Settings: U87-MG GRP78 promoter luciferase reporter, 16 h; activation: hits give high values
Procedure, shortened: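 Stably transfected U87-MG human glioma cells carrying a GRP78-based luminescent sensor were seeded at 1000 cells/well, pin-dosed with compounds and incubated 16 h. Luciferase reagent was then added, and end-point luminescence was read after 10 min at room temperature.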
In the case of `CSc1nc2ccc(NS(=O)(=O)c3ccc4c(c3)OCCO4)cc2s1`, the Potency is reported as inconclusive: 10 µM [activator, single point]. For `COc1cc(O)c(C(=O)/C=C/c2ccccc2)c(OC)c1`, the Potency was inconclusive: 22.4 µM [activator, single point] and inconclusive: 10 µM [activator, single point]. In the case of `CCOc1ccc(NC(=O)CN(C)C(=O)c2cccnc2SC)cc1OCC`, the Potency is reported as inconclusive: 14.1 µM [activator, single point]. In the case of `CCCCOC(=O)c1cc2c(cn1)[nH]c1ccccc12`, the Potency is reported as inconclusive: 39.8 µM [activator, partial curve, poor fit]. In the case of `C=CCNC(=O)/C(C#N)=C/c1ccccc1OCc1ccc(C(=O)OC)cc1`, the Potency is reported as inconclusive: 44.7 µM [activator, partial curve, poor fit]. With `Cc1nn(C(C)C(=O)NCc2cccs2)c(=O)c2nn(-c3ccccc3)c(C)c12` (stereo not given) the activation was inactive: -2.65%. For `C[C@H](CO)N1C[C@H](C)[C@@H](CN(C)S(=O)(=O)c2cn(C)cn2)Oc2ccc(NS(=O)(=O)c3ccccc3)cc2C1=O`, the Potency was inconclusive: 35.5 µM [activator, partial curve, poor fit]. With `COC(=O)C(CCSC)NC(=O)c1cn(-c2ccc(OC)cc2)c(=O)c2ccccc12` (stereo not given) the Potency was inconclusive: 50.1 µM [activator, single point]. In the case of `COc1ccc(C2c3c(-c4ccccc4O)n[nH]c3C(=O)N2CCc2ccccc2)cc1` (stereo not given), the Potency is reported as inconclusive: 44.7 µM [activator, single point]. In the case of `O=C(NCCN1CCOCC1)c1cc(-c2ccccc2)on1`, the Potency is reported as inconclusive: 11.2 µM [activator, single point]. In the case of `O=C(O)/C=C/C(=O)Nc1ccc(Cl)cc1C(=O)c1ccccc1`, the activation is reported as inactive: -6.81%. In the case of `COc1ccc(C(=O)/C=C/c2ccc(F)cc2)c(OC(=O)c2ccc([N+](=O)[O-])cc2)c1`, the Potency is reported as inconclusive: 10 µM [activator, partial curve, poor fit]. For `O=C(/C=C\c1ccccc1OC(=O)c1ccccc1F)c1cc2ccccc2o1`, the Potency was inconclusive: 50.1 µM [activator, single point]. With `O=C(NC1CCCC1)C(=O)c1c[nH]c2ccccc12` the Potency was inconclusive: 10 µM [activator, partial curve, poor fit]. For `Cc1ccc(C(=O)Oc2ccc(C(=S)N3CCOCC3)cc2)cc1`, the Potency was inconclusive: 25.1 µM [activator, full curve, poor fit]. For `COC(=O)[C@H](Cc1ccccc1)NC(=O)C1CCN(C(=O)[C@H](C)NS(=O)(=O)c2ccc(C)cc2)CC1`, the Potency was inconclusive: 11.2 µM [activator, single point]. For `COc1cccc(C(=O)N2CCSC2=S)c1`, the Potency was inconclusive: 50.1 µM [activator, single point]. With `CC(=O)N1CCc2c(sc(NC(=O)C3CC3)c2-c2nc3ccccc3s2)C1` the Potency was inconclusive: 50.1 µM [activator, single point]. In the case of `COC(=O)c1ccc(C2c3c(-c4ccc(Br)cc4)n[nH]c3C(=O)N2c2ccc(Cl)cc2)cc1` (stereo not given), the Potency is reported as inconclusive: 11.2 µM [activator, partial curve, poor fit]. With `CC(=O)c1cccc(NC(=O)c2ccc([N+](=O)[O-])o2)c1` the Potency was inconclusive: 14.1 µM [activator, single point]. With `O=C(NCCc1cn2ccccc2n1)c1cc(COc2ccc3ncccc3c2)on1` the activation was inactive: -7.04%. In the case of `COc1ccc(OC)c(NC(=O)CSc2nn3c(=O)c(C)nnc3s2)c1`, the activation is reported as inactive: -0.945%. For `CCc1ccc(N2CC(C(=O)NNC(=O)c3ccc(F)cc3)CC2=O)cc1` (stereo not given), the Potency was inconclusive: 50.1 µM [activator, single point]. For `CCOc1ccc(C(=O)Nc2nccs2)cc1[N+](=O)[O-]`, the Potency was inconclusive: 11.2 µM [activator, single point]. For `O=C1COc2ccc(C(=O)/C=C/c3ccccc3)cc2N1`, the Potency was inconclusive: 44.7 µM [activator, partial curve, poor fit]. With `Brc1ccc2c(c1)C(c1cccnc1)=NNC(c1cccs1)=N2` the Potency was inconclusive: 31.6 µM [activator, partial curve, poor fit]. In the case of `CCN(CC(O)c1cccc(O)c1)C(=O)C12CC3CC(CC(C3)C1)C2` (stereo not given), the activation is reported as inactive: -4.62%. With `c1ccc2c(c1)Nc1cc3ccccc3cc1S2` the Potency was inconclusive: 2.24 µM [activator, full curve, poor fit]. For `Cc1c(C(=O)N2CCCCCC2)c(S(=O)(=O)Nc2ccc(OC(F)(F)F)cc2)c(C)n1C`, the activation was inactive: -3.74%. In the case of `O=C(CSc1nnc(NC(=O)c2ccco2)s1)Nc1ccc(F)cc1`, the Potency is reported as inconclusive: 31.6 µM [activator, partial curve, poor fit]. With `CN1CC=C2C(C#N)=C(N)C(C#N)(C#N)[C@H](c3cccs3)[C@H]2C1` the activation was inactive: -3.23%. With `Cc1onc(-c2ccccc2)c1C(=O)NNC(=S)NC(=O)c1ccc(Br)cc1` the Potency was inconclusive: 50.1 µM [activator, single point]. In the case of `CCC(C)Sc1nc2c(c(=O)[nH]c(=O)n2C)n1CC(O)COc1cccc2ccccc12` (stereo not given), the Potency is reported as inconclusive: 50.1 µM [activator, single point]. For `O=C(CCS(=O)(=O)c1ccccc1)N1CCN(c2ccc(F)cc2)CC1`, the Potency was inconclusive: 2.24 µM [activator, partial curve, poor fit]. For `O=C(NCCc1cnc[nH]1)c1ccc(-c2ccccc2)cc1`, the Potency was inconclusive: 10 µM [activator, single point]. In the case of `Cn1ncc2c(NCCc3ccccc3)nc(Cl)nc21`, the Potency is reported as inconclusive: 28.2 µM [activator, single point]. With `Cc1cccc(C(=O)NCC(=O)OCC(=O)c2ccc(Cl)s2)c1` the Potency was inconclusive: 2 µM [activator, full curve, poor fit]. For `O=C(Nc1ccc(F)cc1F)c1noc2c1CCC2`, the Potency was inconclusive: 5.01 µM [activator, partial curve, poor fit]. In the case of `O=C(CN1CCCN(Cc2ccc(F)cc2Cl)C1=O)NC1CCCCCC1`, the Potency is reported as inconclusive: 5.01 µM [activator, single point]. With `O=C(Nc1nccs1)C1CCN(S(=O)(=O)c2c(Cl)cccc2Cl)CC1` the activation was inactive: -2.61%. For `COc1ccc(/C=C\C(=O)c2c(O)ccc3c(C)cc(=O)oc23)cc1OC`, the Potency was inconclusive: 50.1 µM [activator, single point]. In the case of `O=C(NCCc1ccc(O)c(O)c1)C1COc2ccccc2O1` (stereo not given), the Potency is reported as inconclusive: 39.8 µM [activator, partial curve, poor fit]. With `O=C1NN(c2ccc(Br)cc2)C(=O)/C1=C\c1ccc(O)cc1O` the activation was inactive: -0.143%. With `CSc1ccc(CCNc2ncnc3onc(-c4ccc(Cl)cc4)c23)cc1` the activation was inactive: -4.62%. For `c1ccc(N=Nc2ccc3cccccc2-3)cc1`, the Potency was inconclusive: 44.7 µM [activator, partial curve, poor fit]. For `Cc1ccc(SCC(Cc2ccccc2)N2CCN(C)CCC2=O)cc1` (stereo not given), the activation was inactive: -2.52%. With `CCOC(=S)SCC(=O)Nc1nc(-c2ccccc2)cs1` the Potency was inconclusive: 28.2 µM [activator, single point]. With `COc1cccc(NC(=O)CSc2nc3c(oc4ccccc43)c(=O)[nH]2)c1` the activation was inactive: 5.18%. With `COC(=O)c1ccc(CN2CCc3ccccc32)cc1` the activation was inactive: 1.28%. With `COC(=O)C1(C)CCCC2(C)c3cc(OC)ccc3C(=O)C(Br)C12` (stereo not given) the Potency was inconclusive: 44.7 µM [activator, partial curve, poor fit]. For `CS(=O)(=O)c1ccc(-c2cccc3c2OC(CNC(=O)c2cc(C4CC4)[nH]n2)C3)cc1` (stereo not given), the activation was inactive: -2.48%. For `O=C(/C=C/c1ccccc1)C1=C(O)C(=O)N(CCO)C1c1ccccc1[N+](=O)[O-]` (stereo not given), the activation was inactive: -6.1%. In the case of `COc1ccc2[nH]c(C)c(C(=O)CNc3nccs3)c2c1`, the activation is reported as inactive: -7.98%. In the case of `FC(F)C(F)(F)C(F)(F)C(F)(F)c1cc(-c2ccccc2)n[nH]1`, the activation is reported as inactive: 1.27%. For `O=C(N/N=C/c1cc([N+](=O)[O-])ccc1O)c1cccc2cc[nH]c12`, the Potency was inconclusive: 39.8 µM [activator, partial curve, poor fit]. In the case of `O=C(O)c1cc(N/N=C2/CC(c3ccccc3)Oc3ccccc32)ccc1Cl` (stereo not given), the activation is reported as inactive: 4.33%. For `COc1cccc(NC(=O)c2nc3ncccn3n2)c1`, the Potency was inconclusive: 50.1 µM [activator, single point]. With `NC(=O)SCC(=O)Nc1ccc(Cl)c(Cl)c1` the Potency was inconclusive: 50.1 µM [activator, single point]. In the case of `COc1cc(C2CC(c3cccs3)=NN2C(=O)CCl)ccc1OC(F)F` (stereo not given), the Potency is reported as inconclusive: 14.1 µM [activator, single point]. With `COc1cccc(-c2cc(NC(C)=O)c3ncc(-c4ccc(OC)c(OC)c4)n3c2)c1` the Potency was inconclusive: 44.7 µM [activator, partial curve, poor fit]. In the case of `O=C(Nc1ccccc1)Nc1cc(S(=O)(=O)N2CCOCC2)ccc1N1CCCC1`, the activation is reported as inactive: 5.85%. For `CCOc1ccc(-c2cc(C(=O)N3CCC(C)CC3)c3ccccc3n2)cc1`, the activation was inactive: 2.09%. For `Cc1ccnc(SCC(=O)c2ccc(Br)s2)n1`, the activation was inactive: 5.55%. With `COc1cc(/C=C/c2ccc3cccc(O)c3n2)ccc1O` the Potency was inconclusive: 15.8 µM [activator, single point]. With `O=S(=O)(/N=C(/Nc1ccccc1)c1ccccc1)c1cccs1` the Potency was inconclusive: 28.2 µM [activator, single point].
